Some of the results follow.
What was measured:
Assay in all cases: glycan array binding signal (z-score within array); higher = stronger binding
Conditions in all cases: glycan notation: IUPAC condensed, linker removed
[1] = molecular target: Neu5Ac(a2-6)Gal
Procedure, shortened: (§1)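 Columns mapping to the same glycan were averaged after glycan names were converted to IUPAC-condensed notation. The data come from 3228 arrays in the Consortium for Functional Glycomics database, limited to those with an available protein sequence. Binding is reported as a within-array Z-score averaged across arrays of one protein sequence and across linkers.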

[2] = molecular target: Neu5Ac(a2-6)Gal(b1-3)GlcNAc(b1-3)[Gal(b1-4)GlcNAc(b1-6)]Gal(b1-4)Glc
Procedure, shortened: as §1

[3] = molecular target: Neu5Ac(a2-6)Gal(b1-4)Glc
Procedure, shortened: as §1

[4] = molecular target: Neu5Ac(a2-6)Gal(b1-4)GlcNAc
Procedure, shortened: as §1

[5] = molecular target: Neu5Ac(a2-6)Gal(b1-4)GlcNAc(b1-2)Man
Procedure, shortened: as §1

[6] = molecular target: Neu5Ac(a2-6)Gal(b1-4)GlcNAc(b1-2)Man(a1-3)Man(b1-4)GlcNAc(b1-4)GlcNAc
Procedure, shortened: as §1

[7] = molecular target: Neu5Ac(a2-6)Gal(b1-4)GlcNAc(b1-2)Man(a1-3)[Gal(b1-4)GlcNAc(b1-2)Man(a1-6)]Man(b1-4)GlcNAc(b1-4)GlcNAc
Procedure, shortened: as §1

[8] = molecular target: Neu5Ac(a2-6)Gal(b1-4)GlcNAc(b1-2)Man(a1-3)[GlcNAc(b1-2)Man(a1-6)]Man(b1-4)GlcNAc(b1-4)GlcNAc
Procedure, shortened: as §1

[9] = molecular target: Neu5Ac(a2-6)Gal(b1-4)GlcNAc(b1-2)Man(a1-3)[GlcNAc(b1-4)][Neu5Ac(a2-6)Gal(b1-4)GlcNAc(b1-2)Man(a1-6)]Man(b1-4)GlcNAc(b1-4)GlcNAc
Procedure, shortened: as §1

[10] = molecular target: Neu5Ac(a2-6)Gal(b1-4)GlcNAc(b1-2)Man(a1-3)[Man(a1-6)]Man(b1-4)GlcNAc(b1-4)GlcNAc
Procedure, shortened: as §1

[11] = molecular target: Neu5Ac(a2-6)Gal(b1-4)GlcNAc(b1-2)Man(a1-3)[Neu5Ac(a2-3)Gal(b1-4)GlcNAc(b1-2)Man(a1-6)]Man(b1-4)GlcNAc(b1-4)GlcNAc
Procedure, shortened: as §1

[12] = molecular target: Neu5Ac(a2-6)Gal(b1-4)GlcNAc(b1-2)Man(a1-3)[Neu5Ac(a2-6)Gal(b1-4)GlcNAc(b1-2)Man(a1-6)]Man(b1-4)GlcNAc(b1-4)GlcNAc
Procedure, shortened: as §1

[13] = molecular target: Neu5Ac(a2-6)Gal(b1-4)GlcNAc(b1-2)Man(a1-3)[Neu5Ac(a2-6)Gal(b1-4)GlcNAc(b1-2)Man(a1-6)]Man(b1-4)GlcNAc(b1-4)[Fuc(a1-6)]GlcNAc
Procedure, shortened: as §1

[14] = molecular target: Neu5Ac(a2-6)Gal(b1-4)GlcNAc(b1-2)Man(a1-6)Man(b1-4)GlcNAc(b1-4)GlcNAc
Procedure, shortened: as §1

[15] = molecular target: Neu5Ac(a2-6)Gal(b1-4)GlcNAc(b1-2)Man(a1-6)[Gal(b1-4)GlcNAc(b1-2)Man(a1-3)]Man(b1-4)GlcNAc(b1-4)GlcNAc
Procedure, shortened: as §1

[16] = molecular target: Neu5Ac(a2-6)Gal(b1-4)GlcNAc(b1-2)Man(a1-6)[GlcNAc(b1-2)Man(a1-3)]Man(b1-4)GlcNAc(b1-4)GlcNAc
Procedure, shortened: as §1

[17] = molecular target: Neu5Ac(a2-6)Gal(b1-4)GlcNAc(b1-2)Man(a1-6)[Man(a1-3)]Man(b1-4)GlcNAc(b1-4)GlcNAc
Procedure, shortened: as §1

[18] = molecular target: Neu5Ac(a2-6)Gal(b1-4)GlcNAc(b1-2)[Neu5Ac(a2-6)Gal(b1-4)GlcNAc(b1-4)]Man(a1-3)[GlcNAc(b1-4)][Neu5Ac(a2-6)Gal(b1-4)GlcNAc(b1-2)[Neu5Ac(a2-6)Gal(b1-4)GlcNAc(b1-6)]Man(a1-6)]Man(b1-4)GlcNAc(b1-4)GlcNAc
Procedure, shortened: as §1

[19] = molecular target: Neu5Ac(a2-6)Gal(b1-4)GlcNAc(b1-2)[Neu5Ac(a2-6)Gal(b1-4)GlcNAc(b1-4)]Man(a1-3)[GlcNAc(b1-4)][Neu5Ac(a2-6)Gal(b1-4)GlcNAc(b1-4)Man(a1-6)]Man(b1-4)GlcNAc(b1-4)GlcNAc
Procedure, shortened: as §1

[20] = molecular target: Neu5Ac(a2-6)Gal(b1-4)GlcNAc(b1-2)[Neu5Ac(a2-6)Gal(b1-4)GlcNAc(b1-6)]Man(a1-6)[Neu5Ac(a2-6)Gal(b1-4)GlcNAc(b1-2)Man(a1-3)][GlcNAc(b1-4)]Man(b1-4)GlcNAc(b1-4)GlcNAc
Procedure, shortened: as §1

[21] = molecular target: Neu5Ac(a2-6)Gal(b1-4)GlcNAc(b1-3)Gal(b1-3)GlcNAc
Procedure, shortened: as §1

[22] = molecular target: Neu5Ac(a2-6)Gal(b1-4)GlcNAc(b1-3)Gal(b1-4)GlcNAc
Procedure, shortened: as §1

[23] = molecular target: Neu5Ac(a2-6)Gal(b1-4)GlcNAc(b1-3)Gal(b1-4)GlcNAc(b1-2)Man(a1-3)[Neu5Ac(a2-6)Gal(b1-4)GlcNAc(b1-3)Gal(b1-4)GlcNAc(b1-2)Man(a1-6)]GalNAc
Procedure, shortened: as §1

[24] = molecular target: Neu5Ac(a2-6)Gal(b1-4)GlcNAc(b1-3)Gal(b1-4)GlcNAc(b1-3)Gal(b1-4)GlcNAc
Procedure, shortened: as §1

[25] = molecular target: Neu5Ac(a2-6)Gal(b1-4)GlcNAc(b1-3)Gal(b1-4)GlcNAc(b1-3)Gal(b1-4)GlcNAc(b1-2)Man(a1-3)[Neu5Ac(a2-6)Gal(b1-4)GlcNAc(b1-3)Gal(b1-4)GlcNAc(b1-3)Gal(b1-4)GlcNAc(b1-2)Man(a1-6)]GalNAc
Procedure, shortened: as §1

[26] = molecular target: Neu5Ac(a2-6)Gal(b1-4)GlcNAc(b1-3)Gal(b1-4)GlcNAc(b1-3)GalNAc
Procedure, shortened: as §1

[27] = molecular target: Neu5Ac(a2-6)Gal(b1-4)GlcNAc(b1-3)Gal(b1-4)GlcNAc(b1-3)[Neu5Ac(a2-6)Gal(b1-4)GlcNAc(b1-3)Gal(b1-4)GlcNAc(b1-6)]GalNAc
Procedure, shortened: as §1

[28] = molecular target: Neu5Ac(a2-6)Gal(b1-4)GlcNAc(b1-3)Gal(b1-4)GlcNAc(b1-6)[Gal(b1-3)]GalNAc
Procedure, shortened: as §1

[29] = molecular target: Neu5Ac(a2-6)Gal(b1-4)GlcNAc(b1-3)Gal(b1-4)[Fuc(a1-3)]GlcNAc(b1-3)Gal(b1-4)[Fuc(a1-3)]GlcNAc
Procedure, shortened: as §1

[30] = molecular target: Neu5Ac(a2-6)Gal(b1-4)GlcNAc(b1-3)GalNAc
Procedure, shortened: as §1

[31] = molecular target: Neu5Ac(a2-6)Gal(b1-4)GlcNAc(b1-3)[Neu5Ac(a2-6)Gal(b1-4)GlcNAc(b1-6)]GalNAc
Procedure, shortened: as §1

[32] = molecular target: Neu5Ac(a2-6)Gal(b1-4)GlcNAc(b1-6)GalNAc
Procedure, shortened: as §1

[33] = molecular target: Neu5Ac(a2-6)Gal(b1-4)GlcNAc(b1-6)[Gal(b1-3)GlcNAc(b1-3)]Gal(b1-4)Glc
Procedure, shortened: as §1

[34] = molecular target: Neu5Ac(a2-6)Gal(b1-4)GlcNAc(b1-6)[Gal(b1-3)]GalNAc
Procedure, shortened: as §1

[35] = molecular target: Neu5Ac(a2-6)Gal(b1-4)GlcNAc6S
Procedure, shortened: as §1

[36] = molecular target: Neu5Ac(a2-6)GalNAc
Procedure, shortened: as §1

[37] = molecular target: Neu5Ac(a2-6)GalNAc(b1-4)GlcNAc
Procedure, shortened: as §1

[38] = molecular target: Neu5Ac(a2-6)GalNAc(b1-4)GlcNAc6S
Procedure, shortened: as §1

B1: Als3-41 (Candida albicans) (protein)
chain: KTITGVFNSFNSLTWSNAATYNYKGPGTPTWNAVLGWSLDGTSASPGDTFTLNMPCVFKFTTSQTSVDLTAHGVKYATCQFQAGEEFMTFSTLTCTVSNTLTPSIKALGTVTLPLAFNVGGTGSSVDLEDSKCFTAGTNTVTFNDGGKKISINVDFERSNVDPKGYLTDSRVIPSLNKVSTLFVAPQCANGYTSGTMGFANTYGDVQIDCSNIHVGITKGLNDWNYPVSSESFSYTKTCSSNGIFITYKNVPAGYRPFVDAYISATDVNSYTLSYANEYTCAGGYWQRAPFTLRWTGYRNSDAGSNGIVIVATTRTVTDSTTAVTTLPFDPNRDKTKTIEILKPIPTTTITTSYVGVTTSYLTKTAPIGETATVIVD
- glycan array binding signal (z-score) [1]: -0.309
- glycan array binding signal (z-score) [2]: -0.389
- glycan array binding signal (z-score) [3]: -0.219
- glycan array binding signal (z-score) [4]: -0.184
- glycan array binding signal (z-score) [5]: -0.129
- glycan array binding signal (z-score) [6]: -0.296
- glycan array binding signal (z-score) [7]: -0.201
- glycan array binding signal (z-score) [8]: -0.308
- glycan array binding signal (z-score) [9]: -0.323
- glycan array binding signal (z-score) [10]: -0.268
- glycan array binding signal (z-score) [11]: -0.13
- glycan array binding signal (z-score) [12]: -0.063
- glycan array binding signal (z-score) [13]: -0.322
- glycan array binding signal (z-score) [14]: -0.308
- glycan array binding signal (z-score) [15]: -0.305
- glycan array binding signal (z-score) [16]: -0.222
- glycan array binding signal (z-score) [17]: -0.365
- glycan array binding signal (z-score) [18]: -0.236
- glycan array binding signal (z-score) [19]: -0.219
- glycan array binding signal (z-score) [20]: -0.261
- glycan array binding signal (z-score) [21]: -0.274
- glycan array binding signal (z-score) [22]: -0.253
- glycan array binding signal (z-score) [23]: 1.22
- glycan array binding signal (z-score) [24]: -0.239
- glycan array binding signal (z-score) [25]: 1.53
- glycan array binding signal (z-score) [26]: 0.145
- glycan array binding signal (z-score) [27]: 0.35
- glycan array binding signal (z-score) [28]: -0.208
- glycan array binding signal (z-score) [29]: -0.164
- glycan array binding signal (z-score) [30]: 0.421
- glycan array binding signal (z-score) [31]: -0.12
- glycan array binding signal (z-score) [32]: 0.026
- glycan array binding signal (z-score) [33]: -0.325
- glycan array binding signal (z-score) [34]: 0.534
- glycan array binding signal (z-score) [35]: -0.197
- glycan array binding signal (z-score) [36]: -0.191
- glycan array binding signal (z-score) [37]: -0.311
- glycan array binding signal (z-score) [38]: 0.088
